Data published in publication PMC6768651, “A ubiquitin-like domain controls protein kinase D dimerization and activation by trans-autophosphorylation” (The Journal of Biological Chemistry, 2019).
Substitutions are numbered along the chain they refer to. In names and notes the source's numbering stands. Results are given in words; binding and its absence hold for the method and conditions named. For some assays here: In cells and extracts the contact can be indirect. Some binding calls cover weakened binding; strength is not graded here. For some assays here: Where a sequence is shown, tags or fusion partners need not be part of it. One block for each binder: values may come before it.

Experiments:
[1] = target: DKF-1 ULD–C1a F59E (C. elegans) (UniProt Q9XUJ7); assay: SEC-MALS; Superdex 200 10/300; 20 mM Tris pH 7.5, 150 mM KCl, 1 mM TCEP; 50 μl of 2.5 mg/ml protein injected; both purified
[2] = target: T1, GST-tagged human PKD3 ULD–C1a (PKD3^55–206) (human) (UniProt O94806); assay: pull-down; GST-PKD3 ULD–C1a co-expressed with His6-tagged PKD1 or PKD2 ULD–C1a in E. coli BL21*; GSH beads from cleared lysate; anti-GST and anti-His blots
T1 sequence: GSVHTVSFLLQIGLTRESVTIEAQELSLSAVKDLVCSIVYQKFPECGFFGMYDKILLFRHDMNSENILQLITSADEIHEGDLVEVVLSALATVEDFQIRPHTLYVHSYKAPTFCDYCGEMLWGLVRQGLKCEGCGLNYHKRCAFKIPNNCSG

[3] = target: DKF-1 ULD F59E (C. elegans) (UniProt Q9XUJ7); assay: SEC-MALS; Superdex 200 10/300; 20 mM Tris pH 7.5, 150 mM KCl, 1 mM TCEP; 50 μl of 2.5 mg/ml protein injected; both purified
[4] = target: T2, Atto488-labeled DKF-1 ULD^R42C (C. elegans, UniProt Q9XUJ7 1-94, R42C, Atto488 (maleimide-conjugated) on cysteine 42); assay: fluorescence polarisation; fluorescence anisotropy; ULD or ULD^F59E (222 or 150 μM stock) titrated into 35–70 nM Atto488-ULD^R42C; 20 mM Tris pH 7.5, 150 mM KCl, 1% glycerol, 1 mM TCEP; 20 °C; single-site binding model; dimer to monomers; both purified
T2 construct: C. elegans DKF-1, residues 1-94 (ubiquitin-like domain) with the surface-exposed arginine 42 mutated to cysteine; Labeling efficiency estimated at about 80%; also called Atto488-ULD^R42C; source: E. coli BL21*, purified in the same way as the WT counterpart, labelled with maleimide-Atto488; not shown: GST, N-terminal, cleaved
T2 sequence (looked up): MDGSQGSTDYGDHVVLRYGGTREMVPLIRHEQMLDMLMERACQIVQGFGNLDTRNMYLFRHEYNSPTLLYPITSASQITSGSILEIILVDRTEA

EGFP-tagged PKD2 (human) = target: T3, EGFP-tagged PKD2 (human) (UniProt Q9BZL6); assay: co-IP; EGFP- and FLAG-tagged constructs co-expressed in HEK293T; GFP-trap (96-well plate or magnetic beads); lysis in 50 mM Tris pH 7.5, 150 mM KCl, 1 mM MgCl2, 0.5% CHAPS, 1 mM TCEP; anti-FLAG blot
T3 sequence: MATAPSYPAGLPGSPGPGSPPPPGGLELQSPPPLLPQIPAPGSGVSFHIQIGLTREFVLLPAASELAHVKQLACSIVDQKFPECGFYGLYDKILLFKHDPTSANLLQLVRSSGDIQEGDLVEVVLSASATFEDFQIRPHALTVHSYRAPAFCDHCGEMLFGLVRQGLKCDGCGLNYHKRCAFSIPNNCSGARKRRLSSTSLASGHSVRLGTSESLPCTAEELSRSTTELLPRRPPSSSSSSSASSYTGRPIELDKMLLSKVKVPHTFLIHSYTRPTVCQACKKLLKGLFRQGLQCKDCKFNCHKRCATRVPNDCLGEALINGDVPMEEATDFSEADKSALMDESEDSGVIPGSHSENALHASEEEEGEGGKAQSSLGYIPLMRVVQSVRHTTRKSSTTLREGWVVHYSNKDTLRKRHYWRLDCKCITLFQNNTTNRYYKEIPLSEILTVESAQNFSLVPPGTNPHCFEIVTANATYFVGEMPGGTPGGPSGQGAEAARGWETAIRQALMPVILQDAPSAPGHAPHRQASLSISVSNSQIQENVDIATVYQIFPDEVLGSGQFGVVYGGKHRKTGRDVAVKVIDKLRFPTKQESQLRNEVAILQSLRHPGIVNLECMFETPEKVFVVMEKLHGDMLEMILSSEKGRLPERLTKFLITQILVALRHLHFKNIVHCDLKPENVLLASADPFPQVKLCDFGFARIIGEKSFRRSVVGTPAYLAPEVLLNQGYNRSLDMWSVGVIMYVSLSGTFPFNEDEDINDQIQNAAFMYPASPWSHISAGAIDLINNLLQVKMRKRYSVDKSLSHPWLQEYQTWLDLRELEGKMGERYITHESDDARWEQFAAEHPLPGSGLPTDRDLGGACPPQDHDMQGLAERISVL

EGFP-tagged PKD3 (human) = target: T4, EGFP-tagged PKD3 (human) (UniProt O94806); assay: as above
T4 sequence: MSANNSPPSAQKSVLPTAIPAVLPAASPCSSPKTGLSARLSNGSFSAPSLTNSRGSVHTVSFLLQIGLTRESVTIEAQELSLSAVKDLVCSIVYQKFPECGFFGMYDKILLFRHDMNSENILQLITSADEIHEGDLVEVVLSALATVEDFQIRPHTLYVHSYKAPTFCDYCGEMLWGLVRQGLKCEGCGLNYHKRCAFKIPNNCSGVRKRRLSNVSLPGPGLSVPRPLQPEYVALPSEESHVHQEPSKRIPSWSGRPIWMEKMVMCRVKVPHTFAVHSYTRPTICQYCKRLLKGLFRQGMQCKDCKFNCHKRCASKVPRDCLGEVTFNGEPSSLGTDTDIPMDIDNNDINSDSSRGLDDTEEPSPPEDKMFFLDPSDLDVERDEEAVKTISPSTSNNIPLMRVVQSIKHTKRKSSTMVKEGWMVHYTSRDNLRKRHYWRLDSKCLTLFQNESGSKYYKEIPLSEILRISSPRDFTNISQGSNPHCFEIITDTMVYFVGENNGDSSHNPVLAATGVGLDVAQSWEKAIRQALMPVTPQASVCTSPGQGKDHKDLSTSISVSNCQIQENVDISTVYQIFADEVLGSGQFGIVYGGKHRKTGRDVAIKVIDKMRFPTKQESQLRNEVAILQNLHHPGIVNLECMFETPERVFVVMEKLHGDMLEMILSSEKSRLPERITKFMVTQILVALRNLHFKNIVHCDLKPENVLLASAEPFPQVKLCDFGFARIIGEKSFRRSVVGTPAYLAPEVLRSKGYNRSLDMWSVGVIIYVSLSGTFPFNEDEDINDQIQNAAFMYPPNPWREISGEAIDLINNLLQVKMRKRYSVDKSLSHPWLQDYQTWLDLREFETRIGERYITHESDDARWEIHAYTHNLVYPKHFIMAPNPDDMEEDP

[5] = target: human PKD1 full-length protein (EGFP-tagged or FLAG-tagged copy) (human) (UniProt Q15139); assay: as above

B1: DKF-1 ULD–C1a F59E (domain or fragment, UniProt Q9XUJ7 1-151)
chain: MDGSQGSTDYGDHVVLRYGGTREMVPLIRHEQMLDMLMERARQIVQGFGNLDTRNMYLERHEYNSPTLLYPITSASQITSGSILEIILVDRTEAAVIPHVVEPESYMRPTFCDFCGEMLTGLMRQGVKCKNCNGNFHKRCSNAARNNCGAP
binding [1]: no binding (tested: 50 μl of 2.5 mg/ml injected)

B3: DKF-1 ULD F59E (domain or fragment, UniProt Q9XUJ7 1-94)
chain: T2 sequence (looked up) with C42R, F59E
binding [3]: no binding (tested: 50 μl of 2.5 mg/ml injected) | binding [4]: no binding (tested: titrated from a 150 μM stock)

B4: human PKD1 full-length protein (EGFP-tagged or FLAG-tagged copy) (protein, UniProt Q15139 1-912)
chain: MSAPPVLRPPSPLLPVAAAAAAAAAALVPGSGPGPAPFLAPVAAPVGGISFHLQIGLSREPVLLLQDSSGDYSLAHVREMACSIVDQKFPECGFYGMYDKILLFRHDPTSENILQLVKAASDIQEGDLIEVVLSASATFEDFQIRPHALFVHSYRAPAFCDHCGEMLWGLVRQGLKCEGCGLNYHKRCAFKIPNNCSGVRRRRLSNVSLTGVSTIRTSSAELSTSAPDEPLLQKSPSESFIGREKRSNSQSYIGRPIHLDKILMSKVKVPHTFVIHSYTRPTVCQYCKKLLKGLFRQGLQCKDCRFNCHKRCAPKVPNNCLGEVTINGDLLSPGAESDVVMEEGSDDNDSERNSGLMDDMEEAMVQDAEMAMAECQNDSGEMQDPDPDHEDANRTISPSTSNNIPLMRVVQSVKHTKRKSSTVMKEGWMVHYTSKDTLRKRHYWRLDSKCITLFQNDTGSRYYKEIPLSEILSLEPVKTSALIPNGANPHCFEITTANVVYYVGENVVNPSSPSPNNSVLTSGVGADVARMWEIAIQHALMPVIPKGSSVGTGTNLHRDISVSISVSNCQIQENVDISTVYQIFPDEVLGSGQFGIVYGGKHRKTGRDVAIKIIDKLRFPTKQESQLRNEVAILQNLHHPGVVNLECMFETPERVFVVMEKLHGDMLEMILSSEKGRLPEHITKFLITQILVALRHLHFKNIVHCDLKPENVLLASADPFPQVKLCDFGFARIIGEKSFRRSVVGTPAYLAPEVLRNKGYNRSLDMWSVGVIIYVSLSGTFPFNEDEDIHDQIQNAAFMYPPNPWKEISHEAIDLINNLLQVKMRKRYSVDKTLSHPWLQDYQTWLDLRELECKIGERYITHESDDLRWEKYAGEQGLQYPTHLINPSASHSDTPETEETEMKALGERVSIL
binding (EGFP-tagged PKD2 (human)): binds | binding (EGFP-tagged PKD3 (human)): binds | binding [5]: binds

Further lines, results first:

binding [2]: binds
B2: His-tagged human PKD1 ULD–C1a (PKD1^48–198) (domain or fragment, UniProt Q15139 48-198)
chain: GISFHLQIGLSREPVLLLQDSSGDYSLAHVREMACSIVDQKFPECGFYGMYDKILLFRHDPTSENILQLVKAASDIQEGDLIEVVLSASATFEDFQIRPHALFVHSYRAPAFCDHCGEMLWGLVRQGLKCEGCGLNYHKRCAFKIPNNCSG

binding [2]: binds
B5: His-tagged human PKD2 ULD–C1a (PKD2^42–190) (domain or fragment, UniProt Q9BZL6 42-190)
chain: GSGVSFHIQIGLTREFVLLPAASELAHVKQLACSIVDQKFPECGFYGLYDKILLFKHDPTSANLLQLVRSSGDIQEGDLVEVVLSASATFEDFQIRPHALTVHSYRAPAFCDHCGEMLFGLVRQGLKCDGCGLNYHKRCAFSIPNNCSG
